# Source: the supplement of paper PMC8728848
# The list shows a part of the results.
# Key:
# Assay in all cases: glycan array binding signal (z-score within array); higher = stronger binding
# Conditions in all cases: glycan notation: IUPAC condensed, linker removed
# [1] = target: Fuc(a1-2)Gal
# Summary of the method: (§1)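 The binding signal is a Z-score computed within each array and averaged over linkers. Arrays of the same protein sequence at different concentrations or buffers were also averaged together. Data originate from 3228 arrays in the Consortium for Functional Glycomics database, kept only where the protein sequence was available.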
# [2] = target: Fuc(a1-2)Gal(b1-3)GalNAc
# Summary of the method: as §1
# [3] = target: Fuc(a1-2)Gal(b1-3)GalNAc(a1-3)[Fuc(a1-2)]Gal(b1-4)Glc
# Summary of the method: as §1
# [4] = target: Fuc(a1-2)Gal(b1-3)GalNAc(a1-3)[Fuc(a1-2)]Gal(b1-4)GlcNAc
# Summary of the method: as §1
# [5] = target: Fuc(a1-2)Gal(b1-3)GalNAc(b1-3)Gal
# Summary of the method: as §1
# [6] = target: Fuc(a1-2)Gal(b1-3)GalNAc(b1-3)Gal(a1-4)Gal(b1-4)Glc
# Summary of the method: as §1
# [7] = target: Fuc(a1-2)Gal(b1-3)GalNAc(b1-4)[Neu5Ac(a2-3)]Gal(b1-4)Glc
# Summary of the method: as §1
# [8] = target: Fuc(a1-2)Gal(b1-3)GlcNAc
# Summary of the method: as §1
# [9] = target: Fuc(a1-2)Gal(b1-3)GlcNAc(b1-2)Man(a1-3)[Fuc(a1-2)Gal(b1-3)GlcNAc(b1-2)Man(a1-6)]Man(b1-4)GlcNAc(b1-4)GlcNAc
# Summary of the method: as §1
# [10] = target: Fuc(a1-2)Gal(b1-3)GlcNAc(b1-2)Man(a1-3)[Fuc(a1-2)Gal(b1-3)GlcNAc(b1-2)Man(a1-6)]Man(b1-4)GlcNAc(b1-4)[Fuc(a1-6)]GlcNAc
# Summary of the method: as §1
# [11] = target: Fuc(a1-2)Gal(b1-3)GlcNAc(b1-3)Gal(b1-4)Glc
# Summary of the method: as §1
# [12] = target: Fuc(a1-2)Gal(b1-3)GlcNAc(b1-3)GalNAc
# Summary of the method: as §1
# [13] = target: Fuc(a1-2)Gal(b1-3)GlcNAc(b1-3)[Fuc(a1-2)Gal(b1-3)GlcNAc(b1-6)]GalNAc
# Summary of the method: as §1
# [14] = target: Fuc(a1-2)Gal(b1-3)GlcNAc(b1-3)[Gal(b1-4)GlcNAc(b1-6)]Gal(b1-4)Glc
# Summary of the method: as §1
# [15] = target: Fuc(a1-2)Gal(b1-3)GlcNAc(b1-3)[Neu5Ac(a2-6)Gal(b1-4)GlcNAc(b1-6)]Gal(b1-4)Glc
# Summary of the method: as §1
# [16] = target: Fuc(a1-2)Gal(b1-3)GlcNAc6S
# Summary of the method: as §1
# [17] = target: Fuc(a1-2)Gal(b1-3)[Fuc(a1-4)]GlcNAc
# Summary of the method: as §1
# [18] = target: Fuc(a1-2)Gal(b1-3)[Fuc(a1-4)]GlcNAc(b1-2)Man(a1-3)[Fuc(a1-2)Gal(b1-3)[Fuc(a1-4)]GlcNAc(b1-2)Man(a1-3)]Man(b1-4)GlcNAc(b1-4)GlcNAc
# Summary of the method: as §1
# [19] = target: Fuc(a1-2)Gal(b1-3)[Fuc(a1-4)]GlcNAc(b1-2)Man(a1-3)[Fuc(a1-2)Gal(b1-3)[Fuc(a1-4)]GlcNAc(b1-2)Man(a1-6)]Man(b1-4)GlcNAc(b1-4)[Fuc(a1-6)]GlcNAc(b1-4)[Fuc(a1-6)]GlcNAc
# Summary of the method: as §1
# [20] = target: Fuc(a1-2)Gal(b1-3)[Fuc(a1-4)]GlcNAc(b1-3)[Fuc(a1-3)[Gal(b1-4)]GlcNAc(b1-6)]Gal(b1-4)Glc
# Summary of the method: as §1
# [21] = target: Fuc(a1-2)Gal(b1-3)[Fuc(a1-4)]GlcNAc(b1-3)[Gal(b1-4)GlcNAc(b1-6)]Gal(b1-4)Glc
# Summary of the method: as §1
# [22] = target: Fuc(a1-2)Gal(b1-4)Fuc(a1-3)]GlcNAc(b1-2)Man(a1-3)[Fuc(a1-2)Gal(b1-4)[Fuc(a1-3)]GlcNAc(b1-2)Man(a1-6)]Man(b1-4)GlcNAc(b1-4)GlcNAc
# Summary of the method: as §1
# [23] = target: Fuc(a1-2)Gal(b1-4)Glc
# Summary of the method: as §1
# [24] = target: Fuc(a1-2)Gal(b1-4)Glc6S
# Summary of the method: as §1
# [25] = target: Fuc(a1-2)Gal(b1-4)GlcNAc
# Summary of the method: as §1
# [26] = target: Fuc(a1-2)Gal(b1-4)GlcNAc(b1-2)Man
# Summary of the method: as §1
# [27] = target: Fuc(a1-2)Gal(b1-4)GlcNAc(b1-2)Man(a1-3)[Fuc(a1-2)Gal(b1-4)GlcNAc(b1-2)Man(a1-6)]Man(b1-4)GlcNAc(b1-4)GlcNAc
# Summary of the method: as §1
# [28] = target: Fuc(a1-2)Gal(b1-4)GlcNAc(b1-2)Man(a1-3)[Fuc(a1-2)Gal(b1-4)GlcNAc(b1-2)Man(a1-6)]Man(b1-4)GlcNAc(b1-4)[Fuc(a1-6)]GlcNAc
# Summary of the method: as §1
# [29] = target: Fuc(a1-2)Gal(b1-4)GlcNAc(b1-2)[Fuc(a1-2)Gal(b1-4)GlcNAc(b1-4)]Man(a1-3)[Fuc(a1-2)Gal(b1-4)GlcNAc(b1-2)Man(a1-6)]Man(b1-4)GlcNAc(b1-4)GlcNAc
# Summary of the method: as §1
# [30] = target: Fuc(a1-2)Gal(b1-4)GlcNAc(b1-3)Gal(b1-4)GlcNAc
# Summary of the method: as §1
# [31] = target: Fuc(a1-2)Gal(b1-4)GlcNAc(b1-3)Gal(b1-4)GlcNAc(b1-2)Man(a1-3)[Fuc(a1-2)Gal(b1-4)GlcNAc(b1-3)Gal(b1-4)GlcNAc(b1-2)Man(a1-6)]Man(b1-4)GlcNAc(b1-4)GlcNAc
# Summary of the method: as §1
# [32] = target: Fuc(a1-2)Gal(b1-4)GlcNAc(b1-3)Gal(b1-4)GlcNAc(b1-3)Gal(b1-4)GlcNAc
# Summary of the method: as §1
# [33] = target: Fuc(a1-2)Gal(b1-4)GlcNAc(b1-3)GalNAc
# Summary of the method: as §1
# [34] = target: Fuc(a1-2)Gal(b1-4)GlcNAc(b1-3)[Fuc(a1-2)Gal(b1-4)GlcNAc(b1-6)]GalNAc
# Summary of the method: as §1
# [35] = target: Fuc(a1-2)Gal(b1-4)GlcNAc(b1-3)[Fuc(a1-3)[Gal(b1-4)]GlcNAc(b1-6)]Gal(b1-4)Glc
# Summary of the method: as §1
# [36] = target: Fuc(a1-2)Gal(b1-4)GlcNAc(b1-6)GalNAc
# Summary of the method: as §1
# [37] = target: Fuc(a1-2)Gal(b1-4)GlcNAc6S
# Summary of the method: as §1
# [38] = target: Fuc(a1-2)Gal(b1-4)[Fuc(a1-3)]GlcNAc
# Summary of the method: as §1
# [39] = target: Fuc(a1-2)Gal(b1-4)[Fuc(a1-3)]GlcNAc(b1-2)Man(a1-3)[Fuc(a1-2)Gal(b1-4)[Fuc(a1-3)]GlcNAc(b1-2)Man(a1-6)]Man(b1-4)GlcNAc(b1-4)[Fuc(a1-6)]GlcNAc
# Summary of the method: as §1
# [40] = target: Fuc(a1-2)Gal(b1-4)[Fuc(a1-3)]GlcNAc(b1-2)[Fuc(a1-2)Gal(b1-4)[Fuc(a1-3)]GlcNAc(b1-4)]Man(a1-3)[Fuc(a1-2)Gal(b1-4)[Fuc(a1-3)]GlcNAc(b1-2)Man(a1-6)]Man(b1-4)GlcNAc(b1-4)GlcNAc
# Summary of the method: as §1
# [41] = target: Fuc(a1-2)Gal(b1-4)[Fuc(a1-3)]GlcNAc(b1-3)Gal(b1-4)[Fuc(a1-3)]GlcNAc
# Summary of the method: as §1
# [42] = target: Fuc(a1-2)Gal(b1-4)[Fuc(a1-3)]GlcNAc(b1-3)Gal(b1-4)[Fuc(a1-3)]GlcNAc(b1-3)Gal(b1-4)[Fuc(a1-3)]GlcNAc
# Summary of the method: as §1
# [43] = target: Fuc(a1-2)Gal(b1-4)[Fuc(a1-3)]GlcNAc(b1-3)GalNAc
# Summary of the method: as §1
# [44] = target: Fuc(a1-2)Gal(b1-4)[Fuc(a1-3)]GlcNAc(b1-3)[Neu5Ac(a2-6)Gal(b1-4)GlcNAc(b1-6)]Gal(b1-4)Glc
# Summary of the method: as §1
# [45] = target: Fuc(a1-2)Gal3S(b1-4)GlcNAc
# Summary of the method: as §1
binder,measurement,setting,value
"Apa (Mycobacterium tuberculosis), Rv1860 (protein) MHQVDPNLTRRKGRLAALAIAAMASASLVTVAVPATANADPEPAPPVPTTAASPPSTAAAPPAPATPVAPPPPAAANTPNAQPGDPNAAPPPADPNAPPPPVIAPNAPQPVRIDNPVGGFSFALPAGWVESDAAHFDYGSALLSKTTGDPPFPGQPPPVANDTRIVLGRLDQKLYASAEATDSKAAARLGSDMGEFYMPYPGTRINQETVSLDANGVSGSASYYEVKFSDPSKPNGQIWTGVIGSPAANAPDAGPPQRWFVVWLGTANNPVDKGAAKALAESIRPLVAPPPAPAPAPAEPAPAPAPAGEVAPTPTTPTPQRTLPA",glycan array binding signal (z-score),[1],0.158
same,glycan array binding signal (z-score),[2],-0.082
same,glycan array binding signal (z-score),[3],2.08
same,glycan array binding signal (z-score),[4],1.19
same,glycan array binding signal (z-score),[5],4.21
same,glycan array binding signal (z-score),[6],0.117
same,glycan array binding signal (z-score),[7],-0.088
same,glycan array binding signal (z-score),[8],-0.552
same,glycan array binding signal (z-score),[9],0.1
same,glycan array binding signal (z-score),[10],0.515
same,glycan array binding signal (z-score),[11],-0.255
same,glycan array binding signal (z-score),[12],-0.239
same,glycan array binding signal (z-score),[13],-0.06
same,glycan array binding signal (z-score),[14],-0.287
same,glycan array binding signal (z-score),[15],-0.081
same,glycan array binding signal (z-score),[16],0.469
same,glycan array binding signal (z-score),[17],-0.361
same,glycan array binding signal (z-score),[18],1.08
same,glycan array binding signal (z-score),[19],0.178
same,glycan array binding signal (z-score),[20],-0.325
same,glycan array binding signal (z-score),[21],-0.259
same,glycan array binding signal (z-score),[22],0.257
same,glycan array binding signal (z-score),[23],-0.059
same,glycan array binding signal (z-score),[24],-0.06
same,glycan array binding signal (z-score),[25],-0.39
same,glycan array binding signal (z-score),[26],0.04
same,glycan array binding signal (z-score),[27],0.314
same,glycan array binding signal (z-score),[28],0.341
same,glycan array binding signal (z-score),[29],0.375
same,glycan array binding signal (z-score),[30],-0.329
same,glycan array binding signal (z-score),[31],-0.029
same,glycan array binding signal (z-score),[32],-0.516
same,glycan array binding signal (z-score),[33],-0.184
same,glycan array binding signal (z-score),[34],-0.126
same,glycan array binding signal (z-score),[35],-0.126
same,glycan array binding signal (z-score),[36],-0.114
same,glycan array binding signal (z-score),[37],-0.46
same,glycan array binding signal (z-score),[38],-0.382
same,glycan array binding signal (z-score),[39],0.23
same,glycan array binding signal (z-score),[40],0.27
same,glycan array binding signal (z-score),[41],-0.731
same,glycan array binding signal (z-score),[42],-0.053
same,glycan array binding signal (z-score),[43],0.513
same,glycan array binding signal (z-score),[44],-0.152
same,glycan array binding signal (z-score),[45],0.043
